Assay results reported in PubChem BioAssay AID1347120 (National Center for Advancing Translational Sciences (NCATS), 2019).
About 930 (0.24%) of roughly 390,000 compounds were called active. Inconclusive results, whose numbers are uncertain, are shown with a selection of clear calls. Calls follow the shape of the dose curve; as a rule, active = well fitted activation curve with a large enough effect; inconclusive = small, poorly fitted or top-dose-only effect; inactive = no such curve, though single readings can be large or run the other way. Potencies of inconclusive entries are doubtful fits and often do not repeat.

test: qHTS for Suppressors of FUS Proteinopathy: Primary screen using FUS-linked yeast assay; also: nearly all actives have a fitted effect of over 55% in size;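 as to growth rescue (activation): plate controls were DMSO vehicle for no effect and reference control for full effect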; settings: S. cerevisiae FUS-expressing, OD600, 24 h; Potency: growth rescue; growth rescue (activation): at 76.6 µM (top of the series)
Procedure, shortened: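 Absorbance at 600 nm, taken 24hr after compound addition, measured rescue of FUS-yeast growth at 30C. Induction used 2% galactose with seeding at OD 0.005. Controls: CP55940 from 92uM final, DMSO only.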
Potency is read from the fitted curve at half-maximal effect; tags tell the direction and shape of the fitted curve.

Row | Structure (SMILES) | growth rescue (activation) | Potency
1 | CCOC(=O)[C@]12CCCC=C1N(CCC1=CCCCC1)C(=O)[C@H](CC(=O)NCc1cccc3ccccc13)C2 | inactive: 39.7% | –
2 | CCc1ccccc1NC(=O)c1cc2sccc2n1C | inactive: -5.82% | –
3 | Oc1ccc(C[C@@H]2CNC(=S)N2CCCCC2CCCCC2)cc1 | – | inconclusive: 31.6 µM [activator, partial curve]
4 | CCCCCCCCN1C(=O)[C@H](CC(=O)NCc2cccs2)C[C@@]2(C(=O)OC)CCCCC=C12 | – | inconclusive: 14.1 µM [activator, partial curve, poor fit]
5 | O=C(CNS(=O)(=O)Cc1ccccc1)NNc1ccccc1 | inactive: -7.64% | –
6 | CC1=C(C(=O)Nc2cc(C(=O)N3CCN(c4ccc(Cl)cc4)CC3)ccc2C)SCCO1 | – | inconclusive: 20 µM [activator, single point]
7 | C[C@@H]1CCCCO[C@@H](CN(C)Cc2ccc(Cl)c(Cl)c2)[C@@H](C)CN([C@H](C)CO)C(=O)c2cc(NC(=O)Nc3ccccc3)ccc2O1 | – | active: 28.2 µM
8 | O=[N+]([O-])c1ccc(Oc2cccc(Br)c2)c2ccncc12 | inactive: 1.26% | –
9 | Cc1cc(-c2csc(N)n2)c(C)n1-c1ccc(Cl)c(Cl)c1 | – | inconclusive: 5.01 µM [activator, partial curve, poor fit]
10 | COc1ccc(C(=O)NCCC(=O)N2CCC3(CC2)NCCc2[nH]cnc23)cc1 | inactive: 8.78% | –
11 | CC(C)C1C(=O)N(Cc2cn(CCC3OCCCO3)nn2)CCS(=O)(=O)N1Cc1ccc(-c2ccc(F)nc2)cc1 (stereo not drawn) | – | inconclusive: 50.1 µM [activator, single point]
12 | COc1ccc(C2C=C(c3ccccc3)Nc3ncnn32)cc1 (stereo not drawn) | inactive: 5.6% | –
13 | O=C(Nc1ccc2c(c1)C(=O)N(CC1CCCO1)C2=O)c1cccc(Br)c1 (stereo not drawn) | – | inconclusive: 3.16 µM [activator, full curve, poor fit]
14 | O=C(/C=C/c1ccc2ccccc2n1)N1CCN(S(=O)(=O)c2ccccc2F)CC1 | – | inconclusive: 28.2 µM [activator, partial curve, poor fit]
15 | Cc1nc2nc(SCC(=O)NCCc3ccc(Cl)cc3)nn2c(C)c1Cc1ccccc1Cl | – | inconclusive: 31.6 µM [activator, single point]
16 | O=C(NCc1nnc(SCc2ccc(F)cc2)n1-c1ccccc1)C12CC3CC(CC(C3)C1)C2 | – | inconclusive: 28.2 µM [activator, partial curve]
17 | CCOc1ccc(N2C(=O)CC(Sc3nc(-c4cccs4)cc(C(F)(F)F)c3C#N)C2=O)cc1 (stereo not drawn) | – | inconclusive: 35.5 µM [activator, single point]
18 | Cc1ccc(-c2nn(CCC(=O)O)cc2/C=C\C(=O)c2ccc(Br)cc2)cc1 | – | inconclusive: 50.1 µM [activator, single point]
